Results reported in patent US20240117010A1 (NAVIGO PROTEINS, published 2024).

Legend:
[1] = target: SARS-CoV2 RBD (receptor binding domain of the spike protein) (SARS-Cov-2, UniProt P0DTC2 319-541)
[2] = target: SARS-CoV2 S1 protein (S1 domain of the spike protein) (SARS-Cov-2, UniProt P0DTC2 16-685)

B1: 212335 (SEQ ID NO: 8) (designed binder)
chain: IAAKFDEAQQYAFYKILHLWNLTEEQRNAFIQSLRDDPSVSLEVLGEARKLNTSQAPKIAAKFDEAQYAAFLEIHHLPNLTEEQRHAFILSLYDDPSVSLEVLGEAQKLNDSQAPK
Question: Which results are given for B1?
Answer: Kd [1]: 68.8 nM; Kd [2]: 13 nM

B2: 212860 (SEQ ID NO: 17) (designed binder)
chain: IAAKFDEAQQYAFYKILHLWNLTEEQRNAFIQSLRDDPSVSLEVLGEARKLNTSQAPKIAAKFDEAQYAAFLEIQHLPNLTEEQRQAFIVSLADDPSVSLEVLGEAQKLNDSQAPK
Question: How did the Kd [2] turn out when B2 was run?
Answer: The Kd was 15 nM.

B3: 212880 (SEQ ID NO: 36) (designed binder)
chain: IAAKFDEAQQLAFYLILHLINLTEEQRNAFIQSLRDDPSVSLEVLGEAYKLNLSQAPKIAAKFDEAQLAAFQEIRHLPNLTEEQREAFITSLYDDPSVSLEVLGEAQKLNDSQAPK
Question: For B3, which Kd [2] is on record?
Answer: The Kd was 9.1 nM.

B4: 213103 (SEQ ID NO: 9) (designed binder)
chain: IAAKFDEAQQWAFYEILHLENLTEEQRNAFIQSLRDDPSVSREVLGEATKLNTSQAPKIAAKFDEAQLAAFQEIRHLPNLTEEQREAFITSLYDDPSVSLEVLGEAQKLNDSQAPK
Question: Which Kd [2] does the source give for B4 here?
Answer: Its Kd is 8 nM.

B5: fusion protein 212895 (SEQ ID NO: 29) (designed binder)
chain: AVLDIAQHSATEEIWWLPNLTKQQKVWFIMSLTQDPSVSKEVLGEAQKLNDSQAPKIAAQHDKIQQAADKEILHLPNLTEEQRNKFRQSLRDDPSVSAEILAEAKKLNDAQAPKIAAQHDKIQQAADKEILHLPNLTEEQRNKFRQSLRDDPSVSAEILAEAKKLNDAQAPKIAAQHDKIQQAADKEILHLPNLTEEQRNKFRQSLRDDPSVSAEILAEAKKLNDAQAPKC
Question: Which Kd [1] does the source give for B5 here?
Answer: The Kd was 34.7 nM.

Question: And the Kd [2]?
Answer: Its Kd is 560 nM.

B6: fusion protein 212896 (SEQ ID NO: 30) (designed binder)
chain: AVLDIDQHAATEEIWWLPNLTKQQKVWFIMSLTQDPSVSLEILAEAKKLNDAQAPKIAAQHDKIQQAADKEILHLPNLTEEQRNKFRQSLRDDPSVSAEILAEAKKLNDAQAPKIAAQHDKIQQAADKEILHLPNLTEEQRNKFRQSLRDDPSVSAEILAEAKKLNDAQAPKIAAQHDKIQQAADKEILHLPNLTEEQRNKFRQSLRDDPSVSAEILAEAKKLNDAQAPKC
Question: Which results are given for B6?
Answer: Kd [1]: 27.6 nM; Kd [2]: 113 nM

B7: fusion protein 213147 (SEQ ID NO: 32) (designed binder)
chain: AKFDEAQQWAFYEILHLENLTEEQRNAFIQSLRDDPSVSREVLGEATKLNTSQAPKIAAKFDEAQLAAFQEIRHLPNLTEEQREAFITSLYDDPSVSLEVLGEAQKLNDSQAPKIAAQHDKIQQAADKEILHLPNLTEEQRNKFRQSLRDDPSVSAEILAEAKKLNDAQAPKIAAQHDKIQQAADKEILHLPNLTEEQRNKFRQSLRDDPSVSAEILAEAKKLNDAQAPK
Question: What does the source list for B7?
Answer: Kd [1]: 42.9 nM; Kd [2]: 225 nM

B8: fusion protein 213152 (SEQ ID NO: 33) (designed binder)
chain: AKFDEAQLAAFEEIRHLPNLTEEQREAFITSLYDDPSVSLEVLGEAQKLNDSQAPKIAAKFDEAQQAAFYEILHLPNPTEWQRNYFIQQLRDDPSVSLAVLGRAQVLNDSQAPKIAAQHDKIQQAADKEILHLPNLTEEQRNKFRQSLRDDPSVSAEILAEAKKLNDAQAPKIAAQHDKIQQAADKEILHLPNLTEEQRNKFRQSLRDDPSVSAEILAEAKKLNDAQAPK
Question: How did the Kd [1] turn out when B8 was run?
Answer: Its Kd is 29.3 nM.

Question: And the Kd [2]?
Answer: Its Kd is 112 nM.

B9: 212361 (SEQ ID NO: 7) (designed binder)
chain: IAAKFDEAQQYAFYKILHLWNLTEEQRNAFIQSLRDDPSVSLEVLGEARKLNTSQAPKIAAKFDEAQYAAFLEIVHLPNLTEEQRQAFIASLWDDPSVSLEVLGEAQKLNDSQAPK
Question: B9 was tested. Which Kd [1] did it give?
Answer: The Kd was 21.3 nM.

Question: What about the Kd [2] of the same binder?
Answer: Its Kd is 31 nM.

B10: 212728 (SEQ ID NO: 18) (designed binder)
chain: IAAKFDEAQLAAFEEIRHLPNLTEEQREAFITSLYDDPSVSLEVLGEAQKLNDSQAPKIAAKFDEAQQAAFYEILHLPNPTEWQRNYFIQQLRDDPSVSLAVLGRAQVLNDSQAPK
Question: Which Kd [2] does the source give for B10 here?
Answer: Its Kd is 6.5 nM.
